# Laboratory results: publication PMC10726135
# Some of the results follow. At the low end of the ranking the order means little. Measured with an extract: partners may take part in the binding.
# Target: T1, HNF4alpha2 (COS-7 nuclear extract) (UniProt P41235)
# T1 sequence: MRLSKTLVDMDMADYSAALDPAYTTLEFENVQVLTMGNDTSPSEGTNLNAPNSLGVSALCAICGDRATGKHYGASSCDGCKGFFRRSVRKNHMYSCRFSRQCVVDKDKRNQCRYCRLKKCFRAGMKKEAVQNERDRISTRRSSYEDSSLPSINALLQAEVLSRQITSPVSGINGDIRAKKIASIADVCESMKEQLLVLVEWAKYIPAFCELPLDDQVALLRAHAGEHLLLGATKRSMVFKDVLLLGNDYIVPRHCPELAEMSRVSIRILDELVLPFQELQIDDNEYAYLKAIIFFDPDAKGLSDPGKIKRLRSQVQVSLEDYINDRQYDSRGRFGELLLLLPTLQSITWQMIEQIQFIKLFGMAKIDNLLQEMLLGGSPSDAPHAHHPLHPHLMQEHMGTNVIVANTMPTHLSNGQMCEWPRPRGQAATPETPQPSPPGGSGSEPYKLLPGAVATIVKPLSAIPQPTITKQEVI
# Test: protein-binding microarray
# Details: COS-7 nuclear extract on double-stranded Agilent 4x180k PBM; binding buffer, salt, pH and temperature not given; high values mean tight binding; double strand, one strand shown; sequences stand for … in …GCCTAGGGAGATTAGAGTATCGGTCGA
row,Sequence,binding signal (log2 normalized intensity)
1,TTAGTCCCAGTATGGTCTCAGTAATGACAT,0.986
2,TTTCACAAGTTTAGCCAAGCAAACAAGTTC,-1.18
3,TGAATGGACTCTGCCCTTAGCAGTGGGAGA,3.86
4,ATGAAGATATATTCCTTCAGGAAGGCCTGT,0.708
5,GTATGTTCTTAAGATAAGGACTGTTGGACC,3.33
6,AAAGCAACAAAAACCAAATCACAATTTTCA,-1.15
7,CTTACATGGGTTAGGAGGATGACAAAGAGC,0.699
8,TTTTTGTGTGTGTGTCAGAGACCCAGAAAA,1.8
9,GGCAATTGATAATGATGTTTACATTCCAGA,1.13
10,TTGGTTTCCTACGGCTGCTGTAACAAGTGG,0.414
11,TACAAAGTTCACTTTCTTGTTTACTCACCT,1.12
12,GAGGTACCTAGGGGACATTCTTTAGAGGCT,-1.11
13,ATTACATCCAGAGTGGGACAAAGTTCCCCG,1.83
14,CTTTTTGACCTTGCAGTGGCAAGGCAAAAG,1.56
15,TGCAGTGTGTCTCCAGGAGCAATCATCGCA,-0.942
16,GTACTTCAACCAGGTTCTCTTTACTGAACG,1.56
17,GCAGGAATGCTGAACAATTGATTTATAGCC,-1.13
18,CCCGTGTAGACACTCATCCCTTGCACTGCT,-0.893
19,TTCTGAGTTGCATGAATTTATCTAAGTAGA,1.26
20,CTGTTTGGTATCTACTCGGCAAAACGGAGA,0.121
21,TCGGAATGTCTGGGCAAAGGGGAGGTTATC,0.29
22,AGGTCAGCTTGTCCAGAGTAGGCTTGCAAG,-0.765
23,CTCTCGTCACCTCCACCCACCCGTGCATCA,4.68
24,TACTTCCTTCACTCTGGGGCAATAACCCTA,-0.0505
25,GCTCAAAATAGGCAAGACTGCCACCTACTG,-1.23

row,Sequence,binding signal (log2 normalized intensity)
1,CATCTGAGACTAACTGCATTTTGGAGATAA,-0.107
2,TCAAAATATAAGGTCCAACTGACATCTGGA,1.25
3,GCTTTAAGAGGAATGCTTTGAGCCAGAATC,-0.81
4,TTGAGTGACCTTGGGCCAGTCGCTTAACCT,1.67
5,AAAGTGGAAGAATGGGAAATTCCATCCTAG,-1.13
6,CTTGGCCCCCGGACCCAAAGTAAACAAAGA,3.5
7,TCAGTGCAATCACGCCTCAAATGAGCTTTT,-1.13
8,GCCTTGCTGCGGATCAAAGGAGCTGGGCCT,-1.1
9,GTAAACATAGCAGAAGACCCTTGGCCTCTA,3.42
10,GGGCTGGCTCAGGACAGGTGAGCCCGGCAG,-1.03
11,GTTAAGTCATTGATGAAACTCCTTCCCTTT,1.25
12,CCCACATCCTGTCAGACCAAGGCTGCTTAA,-1.18
13,ATTGGGGGAGGGTAGTCTATCTCATTACTA,-1.28
14,CTTTCCTCCCACCTTCGAGCTTCACCTTTG,1.58
15,AGAGAGCAATCATGCACCTGCGGATAATCA,-1.24
16,ACAACGCCAAGGACCGCCAAGGAAGCGATG,-1.15
17,AAGAACACAGTGTAGAAGGCAAGGGTCAAG,1.87
18,CTGTGCTGCCCTTTGCCCTTTGGGAAGGGG,5.8
19,TCCTGGTCAGACTTGCCACGGAATCCCAGT,-1.09
20,GACTAGACAGGCTTGTCGAGGACAGGATGG,-0.822
21,GTTCCGCGGTCCGCAGCGCTGGTGGCTGCA,-0.919
22,GCCTGGCTAAAACCCTGGCCACTCCCTGAT,-1.11
23,CTCATGTGGTCCTAAAATTGACCTTTGATC,10.5
24,CTGAACAGGGTCAGTGCAATCACGCCTCAA,-1.12
25,AACATTATGAAATCTTATCAGAAGCTTACA,-1.06

row,Sequence,binding signal (log2 normalized intensity)
1,TCTGTGGATGTATGTCCAGATAACTCTTGT,1.21
2,TCTTGCCTTTGCTCCTCAAAAACATTCCCC,1.2
3,TGGACAAGGAGGCTGGGCTGCATAGAAGAA,-1.19
4,TGGCTAGTGACTCAGAGCATATGTTGACCC,4.71
5,CTGATAAGATTCAGAACCCATTAATTTAGC,-1.11
6,GACAGTCTCCAAGGTTATTATATTGTGGGT,1.9
7,CCTCCTTAGGAAAGAGACATCTGGGAACAA,-0.873
8,GGAGTGTCTTTCAGGAAGGAATAAAAGGCT,-1.09
9,TATGAGATTCCCAGAGAGCTCCCCAAAGGG,-1.21
10,AAATGGAGTGGCCTTTAGAACCGGGGAGAT,0.804
11,ATTAGATGATAAGGGTGAAAAGATAGCTTG,-1.15
12,TTTCCCTAGCTTATATCCCCTGCCTGGGTC,1.64
13,CTGAACATAATTGCAAAATCCTTAGCAAAT,-1.21
14,CAGGATTGGAGATCTGAACTCAAGCTCTTA,-1.12
15,AGCACTGGCATGCAGCAGGGGAATGGAGAC,-1.17
16,AGGCTGAAGTCCAGTAGCTCAATCAAGGTT,-0.0735
17,CCAAAGTCCAAGTTGGTGAGAACAGAGTCT,1.33
18,AAATCTTACCTAAGGAAGTTAACCCCATCA,2.69
19,CTCAAGGCCTTGGCTTGGAACTGACATGCT,-1.03
20,TCTTCAATACAGAGTCCAAATTCCTTGGTA,2.82
21,CATGAAGCAATTCTGAGCCCAACCTCCCCA,4.12
22,GCAAAGTACAAAGTACAGAGATGGCACAGA,2.62
23,CTCAGCGGGAGGCAAGATAAGGGTAATCAC,-1.07
24,TCACCAAACTTCACAATGGGCCCCAGTAAA,-1.03
25,ATTTTCCCACTTGTATGTCCAAGGGTCACT,4.44

row,Sequence,binding signal (log2 normalized intensity)
1,ATCTGTATCAGCCTGTGACAAAGTCCATCT,4.52
2,TGTGGCAAAGGTGAATGACCCCTCCCCTCC,5.48
3,TCACTTTTATCACCATCTTGGTTTTGGTGG,2.38
4,TGCTAAGAATGCGAACCATTTCCCATGGGA,-1.11
5,CCATGGTGTAATGGTTAGCACTCTGGACTC,3.8
6,AAAACAAAGGAAACCAAACATTGAAATCTT,-1.12
7,TAAGCACACTAAGGCTAAAGATTACGAACT,-1.04
8,TGTGATGAAGGCAGAAAGAAAAGGGGACCT,-1.13
9,TTACGGTTAGGGTTAGGGTTAGGGTTAGGG,1.3
10,CTTGTTATCTTGTCTCTTCTTGTACCTCTG,2.05
11,AGCTCTCTTTGCTCTCCTCCTAATCACTGC,0.549
12,GGCCTGATGGTGAGTTCTGTCCTTTGTCCC,3.46
13,TTAACAAGGACAAAGGTCAACAAACGCCCC,5.45
14,AAGTCTGAAGGCAGGGCTTTTCCATTGACA,-1.09
15,GAAAAAAAACCATTGCAAATTGGATGTTGA,1.27
16,AGGAGGTCAGAACTGTGGACTCGCTGCCTT,-0.0538
17,TACATGAGGAGTGAGAACAGACAAAATTAA,-0.4
18,AATCTCTGCACAGCATAGAAAACAAGTTAG,-0.942
19,TACCAGCCAATTAGAAGGCTCCCTGCTGCG,-1.05
20,AAACAGACCTCTCTCTCCCCAGACAGCCAC,2.9
21,GGTATAAAGGTCAGGGATAGAACTGGTCCT,0.723
22,TTTTCAACATATACTTTGAACTTGTTTTTT,2.27
23,GGCCCCTGAGCACTGTCTCAGGGTCCACAT,2.72
24,GGGCTTTTGTCACATTCCAGACTTTGTACA,4.95
25,GAGCAGCACTTTTGGAGTTTGACCTGGAGC,5.38

row,Sequence,binding signal (log2 normalized intensity)
1,TTTGGAATTCCCTGCAAGGACAAAGGTCAT,6.87
2,TCTGGGAGTGCCCTTGCCGAGAGCGGCTCG,-1.2
3,GCTGTTAGCTGAAGGACGTCAGAACTGTCC,-1.06
4,TGGAATCCAAAGTATTTTCTGTCTAGGTGC,1.09
5,TCCCTGGTATGTACTTTCTTTTGGCTCTCT,1.59
6,TGGCCTGGCATTTGAGACTAGCCACAATAG,-1.04
7,TTTGTGTGTGTGTGTGTGTGTCTGTAGTTT,3.28
8,TCAATGTGATCAGGTGTGGGCATTAGCAGG,0.838
9,GACGGGAGGAAAACTGGGCAAAGGTCAGGA,4.92
10,TATGGATTAAATCTTGTTGGCTTGACGCTA,-1.04
11,AGCTCAATCAAGGTTCACTGCAGCCTTGAC,-1.07
12,AGCCTGAGCCACTTCACTGGTGTGATCTTT,2.73
13,GGGCCAAGCTTAGGAATTCCAAGAAGGCAG,-0.931
14,CCTCGACCTTCGGCTGGGGATGAAGGGGGC,-1.02
15,AGCAGACACTGAAAGATGGTATGCTCTGAT,-1.08
16,CAGTCCACATTTCTGAGCTGTGGAAACTCC,-1.15
17,ACTTTCTGTGTCTTGGCAGTGATCAGTGTT,2.24
18,AAGGTTGGTGTGAACCAGGGTTAAGGTTTT,1.25
19,AAGCCGTGGTGCTGTCCAAGGTGCTAGCTC,-1.1
20,AAGTTGTAAAGATACTGCTTTTAAGAAAAA,-0.727
21,TGCACCCCAGGTACGGAGGACAGCCACCCG,-1.08
22,GGTTAGAGGATGACCTTCCCTGCAGAAAAG,-0.738
23,CTTACAGACTCCTGCATATCCTGACTGCTG,-1.21
24,ACAGAGCAAGTAGAGCTGCTTACATTTTGC,-1.08
25,AAACAGATAACTGGGGGCAAAGGTTCACTT,4.93

row,Sequence,binding signal (log2 normalized intensity)
1,CATTGTAGCCTCAAATTCCTGGGCTCAAAC,-1.27
2,TGTTTAGGAGCCAATTATGCTGGCAGTAGG,0.371
3,GATTTAATCCTCAAAAATGCTTTACAAGGT,-1.02
4,CTGTTACCACACCACAGCGGGGCCTCTGTG,-1.17
5,CTGCTTATCTCAACTGATTTACCTCTGACC,2.39
6,TATGGTCTCTTCCAAAGCTGAAATGCCTCA,-1.09
7,GTGGAATCCTGCTAGCAGCTCTCTCCCTTA,-1.19
8,CTGCCCTTTGCCCTTTGGGAAGGGGCAAAA,4.62
9,CCCCCAGGAGCGAGTCAAGGGTCAATCCTC,3.43
10,CAACCCTGGCATAGCATGCCACGATGATTA,-1.2
11,AGCCTTATTCTTTGATCTCTTATCACCCTG,1.86
12,TCGCTCCCCTCCTGTCAGTTTATTTACTGT,1.71
13,TCCCCCAAACCAAAGAGAAATGGTGTGGAC,2.14
14,CAGATGCCTGCACACGGTGTCCAGATTCCA,-0.998
15,AGGTGTGCTGAGGAAACTGACAGGAAACTG,-1.17
16,ACTTCGCTGGAGGTGTTAAAGTGCCATTGA,1.22
17,GAGGAGACAAAGGCCGCGCCCGCCCGCGCC,-1.04
18,AAAAACCTCTCTCCAGGTACAAGGATAAAT,-0.867
19,CACATTCCAGGAATATTCAGATATTCCTGG,-1.05
20,TGCAGGGAGGACAGACTCTGGGAGATAAAG,-1.04
